{"source": "paper PMC4336329", "about": "(PLoS ONE, 2015)", "note": "Out of some 310,000 compounds screened, about 2,200 (0.71%) showed an effect of 50% or more. Effects have a minus sign here. The list shows a part of the results.", "data": [{"molecular_target": "human ether-à-go-go-related gene (hERG) potassium channel (human, UniProt Q12809)", "sequence (Q12809 whole entry, looked up)": "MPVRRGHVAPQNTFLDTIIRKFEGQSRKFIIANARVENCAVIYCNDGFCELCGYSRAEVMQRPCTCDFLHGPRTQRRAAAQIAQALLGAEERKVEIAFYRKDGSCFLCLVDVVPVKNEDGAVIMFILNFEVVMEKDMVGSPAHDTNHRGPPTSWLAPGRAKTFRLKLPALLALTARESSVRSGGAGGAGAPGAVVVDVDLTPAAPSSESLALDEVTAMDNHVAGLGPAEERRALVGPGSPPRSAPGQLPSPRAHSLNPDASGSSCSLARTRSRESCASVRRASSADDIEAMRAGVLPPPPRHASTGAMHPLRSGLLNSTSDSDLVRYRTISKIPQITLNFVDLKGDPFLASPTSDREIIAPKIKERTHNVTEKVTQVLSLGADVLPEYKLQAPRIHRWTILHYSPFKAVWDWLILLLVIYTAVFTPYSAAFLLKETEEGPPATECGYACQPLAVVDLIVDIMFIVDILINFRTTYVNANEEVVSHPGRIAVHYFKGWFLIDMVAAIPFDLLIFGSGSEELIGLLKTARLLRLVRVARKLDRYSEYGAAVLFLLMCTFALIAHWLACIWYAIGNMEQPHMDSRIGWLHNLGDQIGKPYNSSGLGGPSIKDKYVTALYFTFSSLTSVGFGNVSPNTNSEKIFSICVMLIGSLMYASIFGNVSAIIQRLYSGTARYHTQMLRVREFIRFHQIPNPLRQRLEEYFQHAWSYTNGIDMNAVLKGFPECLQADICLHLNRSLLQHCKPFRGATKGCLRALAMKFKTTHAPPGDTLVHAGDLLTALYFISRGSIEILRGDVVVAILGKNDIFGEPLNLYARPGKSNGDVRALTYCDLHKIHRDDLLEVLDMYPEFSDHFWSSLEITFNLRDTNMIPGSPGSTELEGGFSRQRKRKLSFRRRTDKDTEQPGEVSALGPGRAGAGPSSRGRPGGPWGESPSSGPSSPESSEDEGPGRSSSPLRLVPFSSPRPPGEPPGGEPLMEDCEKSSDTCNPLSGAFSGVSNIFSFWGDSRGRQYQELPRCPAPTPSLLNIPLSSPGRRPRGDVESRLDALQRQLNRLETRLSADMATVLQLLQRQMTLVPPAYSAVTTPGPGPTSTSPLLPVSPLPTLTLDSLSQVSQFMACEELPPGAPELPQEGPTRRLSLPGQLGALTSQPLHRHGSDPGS", "assay": "primary screen, population patch clamp on CHO cells stably expressing hERG", "units": {"hERG current change (%, negative = inhibition) at 1uM": "%"}, "values": [{"compound": "O=C(COC(=O)c1ccc(S(=O)(=O)N2CCCC2)cc1)Nc1cccc(F)c1", "hERG current change (%, negative = inhibition) at 1uM": 12.8}, {"compound": "CCOCCCn1c(=S)[nH]c2cc3c(cc2c1=O)OCO3", "hERG current change (%, negative = inhibition) at 1uM": 11.2}, {"compound": "CC(NC(=O)COC(=O)CNS(=O)(=O)/C=C/c1ccccc1)c1ccccc1", "note": "(centres unmarked)", "hERG current change (%, negative = inhibition) at 1uM": 11.2}, {"compound": "CCCCC(NC(=O)c1ccc(Cl)cc1)C(=O)O", "note": "(centres unmarked)", "hERG current change (%, negative = inhibition) at 1uM": 9.29}, {"compound": "O=C(CCCN1C(=O)CSc2ncccc21)N1CCN(Cc2ccccc2)CC1", "hERG current change (%, negative = inhibition) at 1uM": 14.1}, {"compound": "O=C(Nc1ccccc1)C1=C[C@H](c2ccc(C(F)(F)F)cc2)C[C@H](OCc2ccc(CO)cc2)O1", "hERG current change (%, negative = inhibition) at 1uM": 5.76}, {"compound": "Cc1cc(C)c(C(N)=O)c(NC(=O)Nc2ccccc2Cl)n1", "hERG current change (%, negative = inhibition) at 1uM": 0.96}, {"compound": "Cc1ccc(C)c(S(=O)(=O)NC(C)C(=O)Nc2ccc(-c3nc4ccccc4s3)cc2)c1", "note": "(centres unmarked)", "hERG current change (%, negative = inhibition) at 1uM": 4.16}, {"compound": "Cn1c(N)nc2ccccc2c1=O", "hERG current change (%, negative = inhibition) at 1uM": 4.59}, {"compound": "COc1cc([N+](=O)[O-])ccc1NC(=S)NNC(=O)CCC(=O)Nc1ccccc1Cl", "hERG current change (%, negative = inhibition) at 1uM": 0.8}, {"compound": "CN(C)c1ccc(-c2nc3ccccc3n2C)cc1", "hERG current change (%, negative = inhibition) at 1uM": -24.7}, {"compound": "COc1ccc(-c2[nH]nc3c2C(c2ccc(OC(=O)N4CCOCC4)cc2)C(C#N)=C(N)O3)cc1", "note": "(centres unmarked)", "hERG current change (%, negative = inhibition) at 1uM": 9.35}, {"compound": "CC(C(=O)NC1CCCC1)N1CCN(S(=O)(=O)c2ccc(C(C)(C)C)cc2)CC1", "note": "(centres unmarked)", "hERG current change (%, negative = inhibition) at 1uM": -2.73}, {"compound": "Cc1c(Cl)ccc2c1NC(=O)[C@]21N[C@@H](CCC(N)=O)[C@H]2C(=O)N(c3ccc(F)cc3)C(=O)[C@H]21", "hERG current change (%, negative = inhibition) at 1uM": 8.29}, {"compound": "COc1ccc(NC(=O)Nc2ccc(C)cc2Br)c(OC)c1", "hERG current change (%, negative = inhibition) at 1uM": 10.1}, {"compound": "Clc1ccc(-c2nnc3cccc(Cl)n23)c(Cl)c1", "hERG current change (%, negative = inhibition) at 1uM": 6.15}, {"compound": "COc1ccc(-c2nnc(SCC(=O)NCC3CCCO3)o2)cc1", "note": "(centres unmarked)", "hERG current change (%, negative = inhibition) at 1uM": 22.4}, {"compound": "O=C(NC1CCCCC1)C(c1cccs1)N(Cc1cccs1)C(=O)c1ccco1", "note": "(centres unmarked)", "hERG current change (%, negative = inhibition) at 1uM": 10.7}, {"compound": "O=C(NC(=S)Nc1ccc(S(=O)(=O)Nc2ccccc2)cc1)C1CC1", "hERG current change (%, negative = inhibition) at 1uM": 7.24}, {"compound": "Cn1c(-c2cc3ccc(OC(=O)C(C)(C)C)cc3oc2=O)nc2ccccc21", "hERG current change (%, negative = inhibition) at 1uM": 4.98}, {"compound": "CCCCOc1nc(N2CCOCC2)nc(C)c1[N+](=O)[O-]", "hERG current change (%, negative = inhibition) at 1uM": 5.2}, {"compound": "COc1cccc(N(CC(=O)N2CCN(C)CC2)S(=O)(=O)c2ccc(C)cc2)c1", "hERG current change (%, negative = inhibition) at 1uM": 4.39}, {"compound": "CCOC(=O)N1CCN(C(=O)/C=C/c2ccc3c(c2)OCO3)CC1", "hERG current change (%, negative = inhibition) at 1uM": 4.33}, {"compound": "CC(=O)c1ccc(N2CCN(C(=O)C3CCCN(S(=O)(=O)c4c(C)[nH]c(=O)[nH]c4=O)C3)CC2)cc1", "note": "(centres unmarked)", "hERG current change (%, negative = inhibition) at 1uM": 19}, {"compound": "COc1ccc(S(=O)(=O)N2CCN(c3ccccc3OC)CC2)cc1OC", "hERG current change (%, negative = inhibition) at 1uM": 7.66}, {"compound": "Cc1ccccc1S(=O)(=O)Nc1nc2ccccc2nc1N1CCc2ccccc2C1", "hERG current change (%, negative = inhibition) at 1uM": 14.3}, {"compound": "CCOC(=O)N1CCN(S(=O)(=O)c2cccc3ccc(C)nc23)CC1", "hERG current change (%, negative = inhibition) at 1uM": 0.132}, {"compound": "O=C(Nc1cccc(S(=O)(=O)NC2=NCCCCC2)c1)c1cc(-c2ccccc2Cl)nc2ccccc12", "hERG current change (%, negative = inhibition) at 1uM": 10.2}, {"compound": "CCc1ccc([C@@H]2CC=C(C(=O)O)CN2S(=O)(=O)c2ccc(C)cc2)cc1", "hERG current change (%, negative = inhibition) at 1uM": 13.6}, {"compound": "CC(/C=C\\c1cccnc1)=C/C(=O)O", "hERG current change (%, negative = inhibition) at 1uM": 3.18}, {"compound": "CCOc1ccc(NC(=O)CN2C(=O)CSc3ccc(S(=O)(=O)N4CCOCC4)cc32)cc1", "hERG current change (%, negative = inhibition) at 1uM": 12.4}, {"compound": "CN1CCC(=NNC(=O)c2ccc(N(Cc3ccccc3Cl)S(C)(=O)=O)cc2)CC1", "hERG current change (%, negative = inhibition) at 1uM": 6.54}, {"compound": "C=CCN1C(=O)C(CC(=O)NCC)SC1=Nc1cc(Cl)ccc1Cl", "note": "(centres unmarked)", "hERG current change (%, negative = inhibition) at 1uM": 4.18}, {"compound": "CCC(C)c1ccccc1NC(=O)COC(=O)c1ccc(C)c(NC(=O)c2ccco2)c1", "note": "(centres unmarked)", "hERG current change (%, negative = inhibition) at 1uM": -3.56}, {"compound": "OCCC1CN(Cc2ccc3nsnc3c2)CCN1CCc1ccccc1", "note": "(centres unmarked)", "hERG current change (%, negative = inhibition) at 1uM": -73.7}, {"compound": "Cc1ccc(/C=N/N2CCN(c3ccccn3)CC2)o1", "hERG current change (%, negative = inhibition) at 1uM": 15}, {"compound": "c1ccc2nc3c(nc2c1)OCC1CCCCN31", "note": "(centres unmarked)", "hERG current change (%, negative = inhibition) at 1uM": 7.92}, {"compound": "CC(C)CCNc1nc(N)c([N+](=O)[O-])c(N2CCCCCC2)n1", "hERG current change (%, negative = inhibition) at 1uM": 14}, {"compound": "CCOCCCNC(=O)C(NC(=O)CNC(C)=O)c1ccc(C)cc1", "note": "(centres unmarked)", "hERG current change (%, negative = inhibition) at 1uM": -3.41}, {"compound": "CCOC(=O)c1cc(C(C)(C)C)oc1CNC(=O)c1c(C)oc2c1CCCC2", "hERG current change (%, negative = inhibition) at 1uM": 5.37}, {"compound": "Cc1ccc2[nH]c(-c3ccccc3)c(CN(C)C)c(=O)c2c1", "hERG current change (%, negative = inhibition) at 1uM": -4.19}, {"compound": "CC(=O)Nc1ccc(C(=O)OCC(=O)Nc2ccc([N+](=O)[O-])cc2C(F)(F)F)cc1", "hERG current change (%, negative = inhibition) at 1uM": 9.58}, {"compound": "Cc1cc(C(=O)COC(=O)c2ccc(O)cc2)c(C)n1CC1COc2ccccc2O1", "note": "(centres unmarked)", "hERG current change (%, negative = inhibition) at 1uM": 0.163}, {"compound": "COc1ccccc1NC(=S)N1CCC(c2nc3cc(C)c(C)cc3[nH]2)CC1", "hERG current change (%, negative = inhibition) at 1uM": -3.39}]}]}
